The campaign covered roughly 310,000 compounds. About 2,200 (0.71%) showed an effect of 50% or more. The effect is printed as a negative number. This is one part of the list.

The test deals with human ether-à-go-go-related gene (hERG) potassium channel (human, UniProt Q12809). Kind of test: primary screen, population patch clamp on CHO cells stably expressing hERG.
Sequence of human ether-à-go-go-related gene (hERG) potassium channel (Q12809 whole entry, looked up): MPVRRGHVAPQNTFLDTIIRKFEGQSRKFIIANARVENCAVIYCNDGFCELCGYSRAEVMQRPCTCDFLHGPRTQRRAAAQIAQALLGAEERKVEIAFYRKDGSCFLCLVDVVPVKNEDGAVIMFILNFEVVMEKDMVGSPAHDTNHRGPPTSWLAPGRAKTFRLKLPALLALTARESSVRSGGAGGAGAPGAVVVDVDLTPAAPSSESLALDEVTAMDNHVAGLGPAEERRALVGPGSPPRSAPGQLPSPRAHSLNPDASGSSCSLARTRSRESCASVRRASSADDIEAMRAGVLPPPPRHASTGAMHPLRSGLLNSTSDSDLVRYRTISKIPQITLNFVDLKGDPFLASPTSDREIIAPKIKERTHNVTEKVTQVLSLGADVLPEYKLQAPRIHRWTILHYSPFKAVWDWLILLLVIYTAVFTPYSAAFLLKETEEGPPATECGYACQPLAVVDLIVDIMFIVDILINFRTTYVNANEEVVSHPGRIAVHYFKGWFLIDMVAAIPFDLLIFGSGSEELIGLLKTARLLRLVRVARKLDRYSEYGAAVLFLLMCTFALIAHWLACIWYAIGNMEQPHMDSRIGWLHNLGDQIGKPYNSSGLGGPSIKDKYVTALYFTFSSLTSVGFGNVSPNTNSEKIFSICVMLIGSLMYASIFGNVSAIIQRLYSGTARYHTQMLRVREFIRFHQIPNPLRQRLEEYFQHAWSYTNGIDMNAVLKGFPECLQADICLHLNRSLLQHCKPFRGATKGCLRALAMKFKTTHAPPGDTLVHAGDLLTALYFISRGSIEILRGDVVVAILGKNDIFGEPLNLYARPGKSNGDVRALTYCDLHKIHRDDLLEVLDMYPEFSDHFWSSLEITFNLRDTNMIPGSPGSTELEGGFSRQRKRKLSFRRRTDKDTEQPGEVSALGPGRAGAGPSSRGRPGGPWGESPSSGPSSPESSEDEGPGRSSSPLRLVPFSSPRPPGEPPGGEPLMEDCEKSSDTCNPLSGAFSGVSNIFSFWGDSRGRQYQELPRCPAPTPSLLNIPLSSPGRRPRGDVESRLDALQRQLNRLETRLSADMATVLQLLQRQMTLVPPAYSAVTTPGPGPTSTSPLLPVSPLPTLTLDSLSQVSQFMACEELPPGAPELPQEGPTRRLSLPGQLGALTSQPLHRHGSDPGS
As to `O=S(=O)(NCc1csc(-c2cccnc2)n1)c1ccc(F)cc1`, the “hERG current change (%, negative = inhibition) at 1uM” value came out at 44.7%. `CC(C)NC(=O)C12CC3CC(C1)CC(C(=O)NC(C)C)(C3)C2`: the “hERG current change (%, negative = inhibition) at 1uM” value worked out at 5.74%.

For `Cc1ccc(NC(=O)c2ccc(OCc3c(C)noc3C)cc2)nc1`, the “hERG current change (%, negative = inhibition) at 1uM” value is on record as 2.26%. Regarding `CC(C)Cn1c(C(C)C)nc([N+](=O)[O-])c1S(=O)(=O)c1ccc(F)cc1`, the “hERG current change (%, negative = inhibition) at 1uM” value was -1.31%. Turning to `Cc1ccccc1-n1nc2c(c1NC(=O)c1cccs1)CS(=O)(=O)C2`, the “hERG current change (%, negative = inhibition) at 1uM” value was 5.26%. For the compound `O=C1C(Cc2ccc(O)cc2)NC(=S)N1c1ccccc1` (centres unmarked), the “hERG current change (%, negative = inhibition) at 1uM” value is -0.276%. Turning to `COc1ccc(COC(=O)c2sc3nc4n(c(=O)c3c2C)CCC4)cc1`, the “hERG current change (%, negative = inhibition) at 1uM” value came to 5.84%. As for `Cc1ccccc1CN1CCNC(=O)C1CC(=O)NCCN1CCCCC1=O` (centres unmarked), the “hERG current change (%, negative = inhibition) at 1uM” value worked out at 16.6%. Under `COC(=O)c1ccc(CC(=O)c2ccc(O)cc2O)o1` stands 14.8%; under `O=C(Nc1nc2ccccc2[nH]1)C1CCCC1`, -0.671%. With `Cc1cccc(N2C(=O)C3CCC(c4ccccc4)CC3C2=O)c1` (centres unmarked), the “hERG current change (%, negative = inhibition) at 1uM” value came to 9.09%. Take `ClC(Cl)(Cl)c1nc(N/N=C/c2ccncc2)c2ccccc2n1`: the “hERG current change (%, negative = inhibition) at 1uM” value worked out at 20.9%.

Regarding `CCCCn1c(N)c(N(CC(C)C)C(=O)c2ccc(C)o2)c(=O)[nH]c1=O`, the “hERG current change (%, negative = inhibition) at 1uM” value amounted to 16.2%. With `C#Cc1cccc(C(=O)N2CCCC(CCC(=O)NCc3ccccc3F)C2)c1` (centres unmarked) the figure was 11.2%; with `CC1Cc2ccccc2N1C(=O)CSc1nncs1` (centres unmarked), 11.8%. With `Cc1c(C(=O)O)oc2ccc(S(=O)(=O)N3CCCCC3C(=O)O)cc12` (centres unmarked) the figure was 4.79%.

For `Cc1ccccc1-c1nnc(CN2CCC(C)CC2)o1.Cl`, the “hERG current change (%, negative = inhibition) at 1uM” value stood at 3.12%. Consider `C=CCN1C(=O)C(Cc2cccc(C)c2)SC1=Nc1ccc(C(=O)O)cc1` (centres unmarked), for which the “hERG current change (%, negative = inhibition) at 1uM” value is on record as -24.7%. With `CCn1nnc(NC(=O)C(C)(c2ccccc2)c2ccccc2)n1` the figure was 1.68%. Under `Cc1cc(C)c(NC(=S)N(CCCN2CCOCC2)Cc2cccnc2)c(C)c1` stands 9.56%. For the compound `CCC1CCCCN1CCNC(=O)c1[nH]c(C)c(C(C)=O)c1C` (centres unmarked), the “hERG current change (%, negative = inhibition) at 1uM” value came to 7.76%. Under `COCCCNc1ncnc2c1nc1n2CCCC1` stands 13.4%; under `CNC(=O)c1nn(-c2ccc(C)cc2)ccc1=O`, 4.2%. On to `O=C(NCc1ccccc1)C1=C[C@@H](c2ccc(C(F)(F)F)cc2)C[C@@H](OCc2ccc(CO)cc2)O1`, for which the “hERG current change (%, negative = inhibition) at 1uM” value is listed as 8.89%. With `c1ccc(Nc2nc(-c3ccncc3)cs2)nc1` the figure was 3.98%; with `CCOC(=O)C(NC(=O)c1ccc(OC)cc1)(OCC1(CC)COC1)C(F)(F)F` (centres unmarked), 18.8%; with `Cc1ccc(-c2nc3ncccn3c2NC(=O)C2CC2)cc1`, 15.1%.

On to `Cc1cccc(C)c1OCCNC(=O)OCc1ccccc1`, for which the “hERG current change (%, negative = inhibition) at 1uM” value was found to be 6.49%. Turning to `CCS(=O)(=O)c1nc(S(=O)(=O)c2ccc(C)cc2)c(NCCCN(C)C)s1`, the “hERG current change (%, negative = inhibition) at 1uM” value was 14.9%. Take `Cc1ccc(-c2nnc(SCC(=O)Nc3nc4c(s3)CCCC4)n2C)cc1`: the “hERG current change (%, negative = inhibition) at 1uM” value was found to be 9.74%.

Consider `CO/C([O-])=N/c1c[n+](-c2ccc(Cl)cc2)no1`, for which the “hERG current change (%, negative = inhibition) at 1uM” value is recorded as 5.81%. On to `C=CCn1c(C)cc(C(=O)CSc2nnc(C3CC3)n2C2CC2)c1C`, for which the “hERG current change (%, negative = inhibition) at 1uM” value came out at 9.16%. As to `CC1CC(C)CN(C(=O)c2ccc3c(c2)N(Cc2ccccc2)CCS3)C1` (centres unmarked), the “hERG current change (%, negative = inhibition) at 1uM” value was 9.52%.

On to `COc1ccc(/C(C)=N/NC(=O)CNC(=O)c2cccnc2)cc1OC`, for which the “hERG current change (%, negative = inhibition) at 1uM” value stood at 11.6%. `CCS(=O)(=O)c1nc(S(=O)(=O)c2ccc(C)cc2)c(NCCN2CCOCC2)s1`: the “hERG current change (%, negative = inhibition) at 1uM” value is listed as 12.6%.

As for `O=C(O)C1CCCCC1C(=O)Nc1ccc(Cl)cc1Cl` (centres unmarked), the “hERG current change (%, negative = inhibition) at 1uM” value is recorded as 7.45%. Take `CN(C)CCCNC(=S)N(CCN(C)C)Cc1cc2cc3c(cc2[nH]c1=O)OCCO3`: the “hERG current change (%, negative = inhibition) at 1uM” value was 10.5%. As to `COc1cc(/C=N/NC(N)=S)ccc1OCC(=O)Nc1ccc(C)c(C)c1`, the “hERG current change (%, negative = inhibition) at 1uM” value is -11.6%. For the compound `Cc1ccc(C)c(Oc2ccc(S(=O)(=O)N3CCN(C)CC3)cn2)c1`, the “hERG current change (%, negative = inhibition) at 1uM” value was determined as 5.49%.

Turning to `Cc1ccccc1NC(=O)COC(=O)CCc1nc2ccccc2c(=O)[nH]1`, the “hERG current change (%, negative = inhibition) at 1uM” value is 9.23%.

For `NCC(O)COCCC12CC3CC(CC(C3)C1)C2` (centres unmarked), the “hERG current change (%, negative = inhibition) at 1uM” value is reported as 10.3%. For `COCCN(Cc1cccs1)S(=O)(=O)c1csc(C(N)=O)c1`, the “hERG current change (%, negative = inhibition) at 1uM” value is reported as -2.6%. As to `CC(CC(=O)O)NCC1COc2ccccc2O1` (centres unmarked), the “hERG current change (%, negative = inhibition) at 1uM” value came to 11.4%. Under `Cc1cnc(C(=O)Nc2cc(S(=O)(=O)N3CCOCC3)ccc2N2CCN(C)CC2)cn1` stands 3.2%; under `COC(=O)c1ccccc1C(=O)N1CCOCCN(C(=O)c2ccccc2C(=O)OC)CCOCC1`, 10.3%; under `Br.Cc1ccc(C2Cc3cc(O)c(O)cc3CN2)cc1` (centres unmarked), 13.4%. For `CCOc1ccc2nc(NCCNS(=O)(=O)c3ccccc3)c(C#N)cc2c1`, the “hERG current change (%, negative = inhibition) at 1uM” value is 10.2%. Consider `CC(C)(C)c1ccc(C(=O)Nc2cccc(C(=O)N3CCOCC3)c2)cc1`, for which the “hERG current change (%, negative = inhibition) at 1uM” value is given as -15.7%. For `CC(C)(NC(=O)N1CCCC1)c1cccc(C(C)(C)NC(=O)N2CCCC2)c1`, the “hERG current change (%, negative = inhibition) at 1uM” value is on record as 7.35%. For the compound `Cc1cccc(CNC(=O)CCCn2nc(C)c3c(C)n(-c4ccccc4)nc3c2=O)c1`, the “hERG current change (%, negative = inhibition) at 1uM” value stood at 11.2%. Take `CN(CCc1ccccn1)C1CCCN(S(=O)(=O)c2ccccc2Cl)C1` (centres unmarked): the “hERG current change (%, negative = inhibition) at 1uM” value is -5.21%. Under `O=C(COC(=O)c1cccc(Cl)c1)NC1CCCCCCC1` stands 4.7%; under `O=S(=O)(c1ccccc1)c1nc(-c2ccco2)oc1N1CCCCC1`, 6.76%. On to `CCCN(CC(=O)Nc1ccccc1C)C(=O)c1cn2ccccc2n1`, for which the “hERG current change (%, negative = inhibition) at 1uM” value came out at 7.74%. For the compound `CC(C)C(C)(C#N)NC(=O)CSc1nc2scc(-c3ccco3)c2c(=O)n1-c1ccccc1` (centres unmarked), the “hERG current change (%, negative = inhibition) at 1uM” value is reported as 13.5%. Turning to `CN(Cc1cccs1)C(=O)Cc1c[nH]c2ccccc12`, the “hERG current change (%, negative = inhibition) at 1uM” value is on record as 8.74%. For the compound `CCOC(=O)c1ccccc1-c1csc(N)n1`, the “hERG current change (%, negative = inhibition) at 1uM” value worked out at 20.6%. Under `CCCCN(Cc1cc2cc(C)ccc2[nH]c1=O)C(=O)c1ccccn1` stands 0.537%.

For `Cc1sc2nc(-c3ccccc3)[nH]c(=O)c2c1-c1ccccc1`, the “hERG current change (%, negative = inhibition) at 1uM” value stood at 9.71%. Regarding `Cc1ccc(C)c2[nH]c(=O)c(CCNC(=O)c3cc4ccccc4o3)cc12`, the “hERG current change (%, negative = inhibition) at 1uM” value is reported as -0.899%. With `COC(=O)c1cc(OC)c(OC)cc1NC(=O)CSc1ccc(C)cc1` the figure was 3.79%. For `COc1ccc(NC(=O)CNC(=O)Cc2ccccc2)cc1OC`, the “hERG current change (%, negative = inhibition) at 1uM” value was 12.7%.

On to `CCOP(=O)(Cc1ccc(C(=O)CC)o1)OCC`, for which the “hERG current change (%, negative = inhibition) at 1uM” value is recorded as 12.7%.

Turning to `CCc1noc(C)c1C(=O)OCC(=O)c1ccccc1OC`, the “hERG current change (%, negative = inhibition) at 1uM” value is 12.7%. Under `N#C/C(=C\c1ccncc1)c1ccccn1` stands 12.7%. As for `Cc1cc(C)nc(SCC(=O)Oc2ccc3oc(=O)cc(C)c3c2)n1`, the “hERG current change (%, negative = inhibition) at 1uM” value came out at 7.52%. With `Cc1cc(C)c2nc(N3CCC(C(=O)NCCCN4CCCC4=O)CC3)sc2c1` the figure was 3.19%; with `CCOC(=O)c1csc(-c2sccc2Br)n1`, 4.39%; with `COc1ccc(OC)c2sc(Cl)nc12`, -0.621%. For the compound `COc1ccc(CCn2c(-c3cccc([N+](=O)[O-])c3)nc3nc4ccccc4nc32)cc1OC`, the “hERG current change (%, negative = inhibition) at 1uM” value was 12.8%.

With `CCCN(CC(=O)Nc1ccccc1C)C(=O)C1CC(=O)N(c2ccc(CC)cc2)C1` (centres unmarked), the “hERG current change (%, negative = inhibition) at 1uM” value is 3.1%. Regarding `S=c1nc(C2CCCCC2)n(-c2ccccc2)[nH]1`, the “hERG current change (%, negative = inhibition) at 1uM” value came out at 12.6%.

Regarding `COc1ccc(CN=C2NN=C(c3cccc(OC)c3)CS2)cc1`, the “hERG current change (%, negative = inhibition) at 1uM” value is recorded as -7.23%. For the compound `C=C(C)CNC(=S)Nc1sc2c(c1C(=O)OCC)CC(C)(C)OC2`, the “hERG current change (%, negative = inhibition) at 1uM” value is recorded as 17.8%. In the case of `Cc1ccc(/C=N/n2cnc3sc4c(c3c2=O)CCCC4)o1`, the “hERG current change (%, negative = inhibition) at 1uM” value is on record as 6.89%. With `Cc1ccc(-n2c(C)cc(=O)cc2C)cc1[N+](=O)[O-]` the figure was 20.1%; with `Cc1ccc(C)c(NC(=S)c2ccccn2)c1`, 14.6%; with `CC(C)CCNC(=O)C(c1ccncc1)N(Cc1cccs1)C(=O)Cn1nnc(-c2ccc(F)cc2)n1` (centres unmarked), -1.77%. In the case of `CCc1c(C)sc(NC(=O)c2cc(C3CC3)on2)c1C#N`, the “hERG current change (%, negative = inhibition) at 1uM” value amounted to 9.6%. As for `Cc1ccc(NC(=O)CN(C)S(=O)(=O)c2ccc(Cl)s2)c(O)c1`, the “hERG current change (%, negative = inhibition) at 1uM” value worked out at 9.12%. With `COc1ccccc1C(=O)n1nc(C)cc1C`, the “hERG current change (%, negative = inhibition) at 1uM” value was -2.23%. Take `COC(=O)CNC(=O)Cn1cnc2sc(C)c(S(=O)(=O)N3CCC(C)CC3)c2c1=O`: the “hERG current change (%, negative = inhibition) at 1uM” value was 2.8%. For `COC(=O)c1ccc2c(c1)S(=O)(=O)NC(=NCc1ccco1)S2`, the “hERG current change (%, negative = inhibition) at 1uM” value was -9.48%. Regarding `CCCCSc1nnc(CCC)n1N`, the “hERG current change (%, negative = inhibition) at 1uM” value is given as -1.36%. For `c1ccc(-c2nnc(C(c3ccccc3)c3ccccc3)o2)cc1`, the “hERG current change (%, negative = inhibition) at 1uM” value was determined as 11.1%. As for `CN1CCN(C(=O)c2ccccc2NC(=O)c2ccccc2)CC1`, the “hERG current change (%, negative = inhibition) at 1uM” value was -1.69%. With `Cc1nc(Nc2ccccc2)sc1C(=O)c1ccc(F)cc1` the figure was 14%. Under `CCOc1ccc(CN2CCCC(N3CCN(c4ccc(OC)cc4)CC3)C2)cc1` (centres unmarked) stands -21.3%; under `CCOC(=O)c1csc(NC(=O)c2cc3ccccc3o2)n1`, 10.6%; under `O=C(Nc1cccc(F)c1)Nc1ccnn1C1CCN(C(=O)c2ccccn2)CC1`, 5.12%. With `CC(C)(Oc1ccc(Cl)cc1)C(=O)NCC(c1ccco1)N1CCCCC1` (centres unmarked) the figure was 1.95%; with `COc1ccc(C2(O)CC3CCC(C2)N3c2cc(C)nc(-c3ccccc3)n2)cc1` (centres unmarked), -2.84%.

The record behind these values is article PMC4336329 (PLoS ONE, 2015).
